Laboratory results from the supplement of paper PMC4604168 (melanoma cell lines).
Some of the results follow. Many values rest on one well or one pass, so single values are uncertain.

Columns and labels:
Assay in all cases: cell count relative to DMSO control; melanoma cells; higher = more viable cells
Conditions in all cases: library dose: standard library concentration; 72 h
[1] = test system: G361
[2] = test system: IPC-298
[3] = test system: IST-MEL1
[4] = test system: LB2518-MEL
[5] = test system: LOXIMVI
[6] = test system: MEL-HO
[7] = test system: MZ2-MEL
[8] = test system: MeWo
[9] = test system: RPMI7951
[10] = test system: RVH-421
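Also: cells treated in 1,536-well plates, then fixed and DAPI-stained, with nuclei counted from automated high-throughput microscope images.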

Cc1ccc(Nc2nccc(N(C)c3ccc4c(C)n(C)nc4c3)n2)cc1S(N)(=O)=O [Pazopanib] + C[C@@H](Oc1cc(-c2cnn(C3CCNCC3)c2)cnc1N)c1c(Cl)ccc(F)c1Cl [Crizotinib] (first compound 2 µM, partner dose 1 µM)
cell count [1]: 81%
cell count [2]: 70.9%
cell count [3]: 93.9%
cell count [4]: 67.8%
cell count [5]: 102%
cell count [6]: 91.5%
cell count [7]: 72.9%
cell count [8]: 72.1%
cell count [9]: 77.7%
cell count [10]: 65.9%

O=C(/C=C/c1cccnc1)NCCCCC1CCN(C(=O)c2ccccc2)CC1 + CC(C)C[C@H](NC(=O)[C@H](Cc1ccccc1)NC(=O)c1cnccn1)B(O)O [Bortezomib] (first compound 0.05 µM, partner dose 0.005 µM)
cell count [1]: 0.578%
cell count [2]: 6.25%
cell count [3]: 5.5%
cell count [4]: 1.35%
cell count [5]: 14.4%
cell count [6]: 23%
cell count [7]: 5.86%
cell count [8]: 15.7%
cell count [9]: 2%
cell count [10]: 3.99%

O=C(/C=C/c1cccnc1)NCCCCC1CCN(C(=O)c2ccccc2)CC1 + C[C@@H](Oc1cc(-c2cnn(C3CCNCC3)c2)cnc1N)c1c(Cl)ccc(F)c1Cl [Crizotinib] (first compound 0.05 µM, partner dose 1 µM)
cell count [1]: 4.74%
cell count [2]: 26.5%
cell count [3]: 68.2%
cell count [4]: 55.8%
cell count [5]: 114%
cell count [6]: 40.1%
cell count [7]: 34.6%
cell count [8]: 98.6%
cell count [9]: 88%
cell count [10]: 30.2%

O=C(/C=C/c1cccnc1)NCCCCC1CCN(C(=O)c2ccccc2)CC1 + COc1ccc(C2=N[C@@H](c3ccc(Cl)cc3)[C@@H](c3ccc(Cl)cc3)N2C(=O)N2CCNC(=O)C2)c(OC(C)C)c1 [Nutlin-3] (first compound 0.05 µM, partner dose 0.5 µM)
cell count [1]: 5.05%
cell count [2]: 27.1%
cell count [3]: 78%
cell count [4]: 54.2%
cell count [5]: 84.4%
cell count [6]: 44.3%
cell count [7]: 35.4%
cell count [8]: 105%
cell count [9]: 141%
cell count [10]: 23.8%

O=C(/C=C/c1cccnc1)NCCCCC1CCN(C(=O)c2ccccc2)CC1 + CC(C)CCN1c2nc(Nc3cc(F)c(O)c(F)c3)ncc2N(C)C(=O)C1C [BID1870] (first compound 0.05 µM, partner dose 1 µM)
cell count [1]: 4.43%
cell count [2]: 30.5%
cell count [3]: 54.1%
cell count [4]: 73.3%
cell count [5]: 58.7%
cell count [6]: 41.3%
cell count [7]: 36.1%
cell count [8]: 77.6%
cell count [9]: 86.5%
cell count [10]: 44.3%

CC1(C)CCC(c2ccc(Cl)cc2)=C(CN2CCN(c3ccc(C(=O)NS(=O)(=O)c4ccc(N[C@H](CCN5CCOCC5)CSc5ccccc5)c(S(=O)(=O)C(F)(F)F)c4)cc3)CC2)C1 + CS(=O)(=O)CCNCc1ccc(-c2ccc3ncnc(Nc4ccc(OCc5cccc(F)c5)c(Cl)c4)c3c2)o1 [lapatinib] (first compound 2 µM, partner dose 4 µM)
cell count [1]: 36.3%
cell count [2]: 75.1%
cell count [3]: 38.6%
cell count [4]: 51.3%
cell count [5]: 17.1%
cell count [6]: 35%
cell count [7]: 27.3%
cell count [8]: 54.1%
cell count [9]: 8.09%
cell count [10]: 32.7%

CC1(C)CCC(c2ccc(Cl)cc2)=C(CN2CCN(c3ccc(C(=O)NS(=O)(=O)c4ccc(N[C@H](CCN5CCOCC5)CSc5ccccc5)c(S(=O)(=O)C(F)(F)F)c4)cc3)CC2)C1 + O=C(O)[C@@H]1[O][Sb](=[O])([O][Sb]2(=[O])[O][C@H]([C@H](O)CO)[C@H](O)[C@H](C(=O)O)[O]2)[O][C@H]([C@H](O)CO)[C@@H]1O [stibogluconate] (first compound 2 µM, partner dose 10 µM)
cell count [1]: 66.8%
cell count [2]: 82.2%
cell count [3]: 67.4%
cell count [4]: 66.6%
cell count [5]: 63.8%
cell count [6]: 53.8%
cell count [7]: 80.2%
cell count [8]: 71.7%
cell count [9]: 48.3%
cell count [10]: 60.9%

O=C(/C=C/c1cccnc1)NCCCCC1CCN(C(=O)c2ccccc2)CC1 + O=C(Nc1ccccc1)c1cc([N+](=O)[O-])ccc1Cl [GW9662] (first compound 0.05 µM, partner dose 10 µM)
cell count [1]: 8.05%
cell count [2]: 48.9%
cell count [3]: 89.6%
cell count [4]: 49.7%
cell count [5]: 61.7%
cell count [6]: 55.4%
cell count [7]: 33.1%
cell count [8]: 92.3%
cell count [9]: 101%
cell count [10]: 45.9%

Cc1ccc(Nc2nccc(N(C)c3ccc4c(C)n(C)nc4c3)n2)cc1S(N)(=O)=O [Pazopanib] + CNC(=O)c1cc(Oc2ccc(NC(=O)Nc3ccc(Cl)c(C(F)(F)F)c3)cc2)ccn1 [sorafenib] (first compound 2 µM, partner dose 2 µM)
cell count [1]: 74.8%
cell count [2]: 92.9%
cell count [3]: 91.9%
cell count [4]: 101%
cell count [5]: 84.9%
cell count [6]: 93.3%
cell count [7]: 99.8%
cell count [8]: 80.2%
cell count [9]: 73%
cell count [10]: 76.5%

CC1(C)CCC(c2ccc(Cl)cc2)=C(CN2CCN(c3ccc(C(=O)NS(=O)(=O)c4ccc(N[C@H](CCN5CCOCC5)CSc5ccccc5)c(S(=O)(=O)C(F)(F)F)c4)cc3)CC2)C1 + COc1cc(Nc2ncc(F)c(Nc3ccc4c(n3)NC(=O)C(C)(C)O4)n2)cc(OC)c1OC [Tamatinib] (first compound 2 µM, partner dose 2 µM)
cell count [1]: 57.1%
cell count [2]: 88.5%
cell count [3]: 27.1%
cell count [4]: 77.9%
cell count [5]: 10%
cell count [6]: 52.5%
cell count [7]: 94.3%
cell count [8]: 66.3%
cell count [9]: 17.4%
cell count [10]: 53.8%

O=C(/C=C/c1cccnc1)NCCCCC1CCN(C(=O)c2ccccc2)CC1 + CC(C)(C)c1cnc(CSc2cnc(NC(=O)C3CCNCC3)s2)o1 [SNS-032] (first compound 0.05 µM, partner dose 0.05 µM)
cell count [1]: 6.62%
cell count [2]: 23.1%
cell count [3]: 59.3%
cell count [4]: 38.2%
cell count [5]: 60%
cell count [6]: 48.4%
cell count [7]: 37.3%
cell count [8]: 101%
cell count [9]: 59.8%
cell count [10]: 22%

O=C(/C=C/c1cccnc1)NCCCCC1CCN(C(=O)c2ccccc2)CC1 + Cn1c(Nc2ccc(C(F)(F)F)cc2)nc2cc(Oc3ccnc(-c4ncc(C(F)(F)F)[nH]4)c3)ccc21 [CHIR265] (first compound 0.05 µM, partner dose 0.4 µM)
cell count [1]: 5.28%
cell count [2]: 37.5%
cell count [3]: 55.8%
cell count [4]: 34.8%
cell count [5]: 56.5%
cell count [6]: 29.6%
cell count [7]: 29.4%
cell count [8]: 62.5%
cell count [9]: 46.5%
cell count [10]: 37.3%

O=C(/C=C/c1cccnc1)NCCCCC1CCN(C(=O)c2ccccc2)CC1 + C[C@@H]1CCN(C(=O)CC#N)C[C@@H]1N(C)c1ncnc2[nH]ccc12 [CP690550] (first compound 0.05 µM, partner dose 5 µM)
cell count [1]: 3.81%
cell count [2]: 27.5%
cell count [3]: 59.5%
cell count [4]: 47.2%
cell count [5]: 59.4%
cell count [6]: 40.8%
cell count [7]: 34.5%
cell count [8]: 92.2%
cell count [9]: 74.6%
cell count [10]: 35%

O=C(/C=C/c1cccnc1)NCCCCC1CCN(C(=O)c2ccccc2)CC1 + O=C(O)c1ccc(-c2c[nH]c3ncc(-c4ccccc4)cc23)cc1C1CCCC1 [GSK650394] (first compound 0.05 µM, partner dose 0.8 µM)
cell count [1]: 4.62%
cell count [2]: 37.3%
cell count [3]: 61.4%
cell count [4]: 63.9%
cell count [5]: 59.1%
cell count [6]: 53.2%
cell count [7]: 34.9%
cell count [8]: 85.1%
cell count [9]: 115%
cell count [10]: 29.5%

Cc1ccc(Nc2nccc(N(C)c3ccc4c(C)n(C)nc4c3)n2)cc1S(N)(=O)=O [Pazopanib] + C[C@@H](N)c1ccc(C(=O)Nc2ccnc3[nH]ccc23)cc1 [RKI983] (first compound 2 µM, partner dose 2 µM)
cell count [1]: 87%
cell count [2]: 68.1%
cell count [3]: 77.5%
cell count [4]: 101%
cell count [5]: 65.4%
cell count [6]: 62.3%
cell count [7]: 41.6%
cell count [8]: 76.6%
cell count [9]: 53.5%
cell count [10]: 58%

Cc1ccc(Nc2nccc(N(C)c3ccc4c(C)n(C)nc4c3)n2)cc1S(N)(=O)=O [Pazopanib] + Cc1cn(-c2cc(NC(=O)c3ccc(C)c(Nc4nccc(-c5cccnc5)n4)c3)cc(C(F)(F)F)c2)cn1 [nilotinib] (first compound 2 µM, partner dose 1 µM)
cell count [1]: 78.2%
cell count [2]: 94.8%
cell count [3]: 93.2%
cell count [4]: 98.1%
cell count [5]: 125%
cell count [6]: 91.5%
cell count [7]: 80.5%
cell count [8]: 86%
cell count [9]: 87.8%
cell count [10]: 99.6%

Cc1ccc(Nc2nccc(N(C)c3ccc4c(C)n(C)nc4c3)n2)cc1S(N)(=O)=O [Pazopanib] + Cc1nc(Nc2ncc(C(=O)Nc3c(C)cccc3Cl)s2)cc(N2CCN(CCO)CC2)n1 [dasatanib] (first compound 2 µM, partner dose 0.02 µM)
cell count [1]: 63%
cell count [2]: 58.6%
cell count [3]: 95.4%
cell count [4]: 67%
cell count [5]: 20.8%
cell count [6]: 74.2%
cell count [7]: 31%
cell count [8]: 68.9%
cell count [9]: 25.4%
cell count [10]: 63.7%

CC1(C)CCC(c2ccc(Cl)cc2)=C(CN2CCN(c3ccc(C(=O)NS(=O)(=O)c4ccc(N[C@H](CCN5CCOCC5)CSc5ccccc5)c(S(=O)(=O)C(F)(F)F)c4)cc3)CC2)C1 + Cc1cc(Nc2cc(N3CCN(C)CC3)nc(/C=C/c3ccccc3)n2)n[nH]1 [ENMD2076] (first compound 2 µM, partner dose 0.2 µM)
cell count [1]: 72.2%
cell count [2]: 87.1%
cell count [3]: 72.1%
cell count [4]: 58.5%
cell count [5]: 46%
cell count [6]: 56.9%
cell count [7]: 77.2%
cell count [8]: 67.9%
cell count [9]: 38.4%
cell count [10]: 41.7%

Cc1ccc(Nc2nccc(N(C)c3ccc4c(C)n(C)nc4c3)n2)cc1S(N)(=O)=O [Pazopanib] + Cc1cc(N2CCOCC2)cc2[nH]c(-c3c(NC[C@@H](O)c4cccc(Cl)c4)cc[nH]c3=O)nc12 [BMS536924] (first compound 2 µM, partner dose 1 µM)
cell count [1]: 67.1%
cell count [2]: 81.9%
cell count [3]: 81.9%
cell count [4]: 71.1%
cell count [5]: 63.1%
cell count [6]: 87.8%
cell count [7]: 104%
cell count [8]: 66.5%
cell count [9]: 105%
cell count [10]: 94.6%

Cc1ccc(Nc2nccc(N(C)c3ccc4c(C)n(C)nc4c3)n2)cc1S(N)(=O)=O [Pazopanib] + Nc1nc(F)nc2c1ncn2[C@@H]1O[C@H](CO)[C@@H](O)[C@@H]1O [fludarabine] (first compound 2 µM, partner dose 1 µM)
cell count [1]: 77.1%
cell count [2]: 54.6%
cell count [3]: 60.4%
cell count [4]: 85.9%
cell count [5]: 85%
cell count [6]: 68.5%
cell count [7]: 60.6%
cell count [8]: 91.9%
cell count [9]: 63.9%
cell count [10]: 73.1%
